Laboratory results from PubChem BioAssay AID1379 (National Center for Advancing Translational Sciences (NCATS), 2008).
Screen size: about 200,000 compounds; about 560 (0.28%) were called active. This list was built around the results that the source calls inconclusive (neither active nor inactive); the mix of calls is not that of the screen. Calls follow the shape of the dose curve; as a rule, active = well fitted inhibition curve with a large enough effect; inconclusive = small, poorly fitted or top-dose-only effect; inactive = flat fitted curve, though single readings scatter. Potencies of inconclusive entries are left out as doubtful fits.

biological target: Luciferin 4-monooxygenase (Photuris pensylvanica) (UniProt Q27757); experiment: Counterscreen for Luciferase (Kinase-Glo TM) Inhibition; details: ATP luminescence, 8 min; series mostly up to 38.3 µM; also: nearly all actives have a fitted effect of over 60% in size
How it was run: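 Compound is pinned into ATP-containing buffer (10 uM ATP, imidazole pH 7.2, 7 mM MgCl2). Kinase-Glo luciferase reagent is then added. Light output is recorded following an 8-min room-temperature incubation.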
% is scaled to controls: 0 for no effect and ±100 for the full control effect; potency is read from the fitted curve at half-maximal effect; tags tell the direction and shape of the fitted curve.

| Structure (SMILES) | Potency | activity change, negative = inhibition |
| --- | --- | --- |
| CCCSc1ccc2nc(-c3ccccc3)cn2c1 | active: 10 µM | – |
| O=C1CCCc2[nH]c(-c3ccccc3)nc21 | inconclusive [inhibitor, partial curve] | – |
| O=C(/C=C/c1cn(-c2ccccc2)nc1-c1cccnc1)N1CCCC1 | inactive | – |
| O=C1Nc2ccccc2S/C1=C\C(=O)N1CCCC1 | inconclusive [inhibitor, single point] | – |
| O=[N+]([O-])c1ccc(/C=C/c2ccc3ccccc3n2)cc1 | inconclusive [inhibitor, partial curve] | – |
| CC(C)NC(=O)N1CC2(CCN(S(=O)(=O)c3ccccc3)CC2)C1 | inactive | – |
| O=C(O/N=C1/CCCc2occc21)c1ccc(F)cc1 | inconclusive [inhibitor, single point] | – |
| Cc1[nH]n(-c2ccc(Cl)cc2)c(=O)c1/C=N/c1nnc(-c2ccccc2)s1 | inconclusive [inhibitor, partial curve] | – |
| COc1ccc(NC(=O)c2c(NC(=O)CCC(=O)O)sc(-c3ccccc3)c2C)cc1 | inactive | – |
| Brc1ccc(-c2ccc(/C=N/Nc3nc4ccccc4[nH]3)o2)cc1 | inconclusive [inhibitor, partial curve] | – |
| CN1N=C(/C=C/c2ccccc2)CCC1=O | inconclusive [inhibitor, partial curve] | – |
| CC(C)c1ccc(NC(=O)NCc2ccc(F)cc2)cc1 | inactive | – |
| O=C(CNC(=O)c1cccc(F)c1)N/N=C/c1cc(Br)ccc1OC(=O)/C=C/c1ccco1 | inactive | – |
| Oc1c(C=Nc2cccc3cccnc23)sc2ccccc12 | active: 10 µM | – |
| COC(=O)c1ccc(-c2nc3ccccc3[nH]2)cc1 | inconclusive [inhibitor, single point] | – |
| COc1ccc2c(c1)c(C(C)=O)c(C)n2-c1ccccc1 | inactive | – |
| CC(=O)Oc1oc(-c2ccccc2)nc1/C=N/c1ccccn1 | inconclusive [inhibitor, partial curve] | – |
| C=CCOC(=O)N[C@H](/C(C(=O)OC)=C(\C)NCc1ccccc1)c1ccc(C)cc1 | inactive | – |
| O=C(CC(Nc1ccccc1)C(=O)O)c1ccccc1 (centres undefined) | inconclusive [inhibitor, single point] | – |
| COc1ccc(/C=N/Nc2nccnc2Cl)c(OC)c1 | active: 12.6 µM | – |
| COc1ccccc1-c1nc(-c2ccc(Br)o2)no1 | inconclusive [inhibitor, single point] | – |

| Structure (SMILES) | Potency | activity change, negative = inhibition |
| --- | --- | --- |
| CCOc1ccc(OCc2cccc(C(=O)O)c2)cc1 | active: 11.2 µM | – |
| Cc1cccc(N/C=C/C(=O)c2cccs2)c1C | inconclusive [inhibitor, partial curve] | – |
| CCc1ccc(N2CC(C(=O)N/N=C/c3cc([N+](=O)[O-])ccc3O)CC2=O)cc1 (centres undefined) | inactive | – |
| COc1ccc(-c2csc(Nc3ncccc3C)n2)cc1 | inconclusive [inhibitor, partial curve] | – |
| Cc1ccc(-n2c(O)c(/C=N/Nc3ccc(S(=O)(=O)N4CCOCC4)cc3[N+](=O)[O-])c3ccccc3c2=O)c(C)c1 | inconclusive [inhibitor, partial curve] | – |
| Cc1noc(/C=C/Nc2ccc(F)cc2F)c1[N+](=O)[O-] | inconclusive [inhibitor, partial curve] | – |
| COc1ccc(CSc2nc3ccccc3[nH]2)cc1 | active: 8.91 µM | – |
| CC/C(=N/NC(=O)CNc1ccc(Cl)cc1C)c1ccccc1 | inactive | – |
| N/C(=N\OC(=O)c1cccs1)c1ccccc1 | active: 10 µM | – |
| O=C(N=Nc1c(O)[nH]c2ccccc12)c1ccco1 | active: 10 µM | – |
| CCN1C(=S)SC(=O)C1=C1C=C(C)N(Cc2ccco2)C(C)=C1 | inactive | – |
| CN1C(=O)/C(=C2/C=Cc3ccccc3N2CCCS(=O)(=O)O)SC1=S | inconclusive [inhibitor, partial curve] | – |
| Cc1ccc(SCc2nc3ccccc3[nH]2)cc1 | inconclusive [inhibitor, partial curve] | – |
| O=C(CSc1ccc(-c2ccc(Br)cc2)nn1)N1CCOCC1 | inactive | – |
| Nc1ccc(-c2nc3ccccc3[nH]2)cc1 | inconclusive [inhibitor, partial curve] | – |
| C[C@@H](O)C#C[Si](C)(C)c1ccccc1 | inactive | – |
| CCOc1ccc(-c2cn3ccccc3n2)cc1 | active: 8.91 µM | – |
| O=C(COC(=O)c1ccccc1)c1ccc(Br)cc1 | inconclusive [inhibitor, partial curve] | – |
| COc1ccc(-c2cc3nc4n(c(=O)c3s2)CCC4)cc1 | inconclusive [inhibitor, partial curve] | – |
| NC1=NC(=O)/C(=C\c2ccc(O)c([N+](=O)[O-])c2)S1 | inconclusive [inhibitor, single point] | – |
| COc1ccc(C(=O)/C(C#N)=N/Nc2ccccc2[N+](=O)[O-])cc1 | inactive | – |

| Structure (SMILES) | Potency | activity change, negative = inhibition |
| --- | --- | --- |
| CC(=N/O)/C(C)=N\NC(=O)c1ccccn1 | inconclusive [inhibitor, single point] | – |
| CSc1ccc(/C=N/NC(=O)c2sccc2C)cc1 | inconclusive [inhibitor, partial curve] | – |
| CCOC(=O)N1CCN(c2cc(NCCC(=O)O)c3c4c(onc24)-c2ccccc2C3=O)CC1 | inconclusive [inhibitor, partial curve] | – |
| Cc1ccsc1C(=O)OCC(=O)c1cc(C)n(CC2CCCO2)c1C (centres undefined) | active: 12.6 µM | – |
| COc1cc(/C=N/Nc2nncn2/N=C/c2ccc(O)c(OC)c2)ccc1O | active: 10 µM | – |
| CCNC(=S)N/N=C(\C)c1ccc2ccccc2c1 | inactive | – |
| Cn1cc(Cl)c(C(=O)Nc2nc3ccccc3s2)n1 | inconclusive [inhibitor, partial curve] | – |
| O=C1/C(=C/c2cccs2)COc2ccccc21 | inconclusive [inhibitor, single point] | – |
| CSc1nc(/C=C2\C=Nc3ccccc32)c(O)n1C | inconclusive [inhibitor, partial curve] | – |
| CC1CCOC(c2coc3ccccc3c2=O)O1 (centres undefined) | inconclusive [inhibitor, partial curve] | – |
| CCOc1ccc2nc(NC(=O)c3ccoc3C)sc2c1 | active: 2.82 µM | – |
| CN1CCN(c2ccc(-c3ccc4ccccc4n3)cc2)CC1 | inconclusive [inhibitor, partial curve] | – |
| CCOc1ccc(/C=C2\SC(=S)NC2=O)cc1OC | inactive | – |
| CNc1nnc(-c2cc3ccccc3oc2=O)s1 | inconclusive [inhibitor, partial curve] | – |
| CC1CCCN(c2ccc3nc4ccccc4c(=O)n3n2)C1 (centres undefined) | inconclusive [inhibitor, partial curve] | – |
| c1ccc(N2CCN(Cc3cn4ccccc4n3)CC2)cc1 | inactive | – |
| O=C(NN=C1CCCC1)c1n[nH]c2c1CCCC2 | active: 12.6 µM | – |
| CC(=O)CSc1nc2cc3c(cc2cc1C#N)OCCO3 | active: 4.47 µM | – |
| COc1cccc2oc(-c3ccccc3)cc(=O)c12 | active: 15.8 µM | – |
| Cc1nnc2n(-c3ccccc3)c(=O)c3c4c(sc3n12)COC(C(C)C)C4 (centres undefined) | inactive | – |
| S=C(NCc1ccccc1)NCc1ccc(CNC(=S)NCc2ccccc2)cc1 | inactive | – |

| Structure (SMILES) | Potency | activity change, negative = inhibition |
| --- | --- | --- |
| Cc1ccccc1/C=C1\OC(=O)c2ccccc21 | inactive | – |
| COc1ccc(C(=O)Nc2nc3ccc(S(C)(=O)=O)cc3s2)cc1OC | inactive | – |
| Cc1cc(NCCN2CCOCC2)n2ncc(-c3ccccc3)c2n1 | inactive | – |
| CCOc1ccc(N2C(=O)CC(NCCc3c[nH]c4ccccc34)C2=O)cc1 (centres undefined) | inactive | – |
| COc1ccc(-n2ncc3c(N4CCCCC4)ncnc32)cc1 | inconclusive [inhibitor, partial curve] | – |
| O=C1Nc2ccccc2/C1=N\N=C\C1=C(N2CCOCC2)C(=C\c2ccccc2)/CC1 | inconclusive [inhibitor, single point] | – |
| C/C(=N/NC(=O)c1cnccn1)c1cccs1 | inconclusive [inhibitor, single point] | – |
| CCn1c(/C=C/c2ccccc2)nc2ccccc21 | active: 10 µM | – |
| Cc1cccc(-c2noc(CCCOc3ccc(Cl)cc3Cl)n2)c1 | inactive | – |
| Cc1cccnc1Nc1nc(-c2ccc(O)cc2)cs1 | inactive | – |
| COC(=O)c1ccc2nc(-c3ccc4c(c3)OCO4)cn2c1 | inconclusive [inhibitor, partial curve] | – |
| COc1cccc2c1C(=O)O/C2=C/c1ccc2c(c1)OCO2 | inconclusive [inhibitor, partial curve] | – |
| CCC(/C=C1\Sc2ccc(OC)cc2N1CCO)=C\c1sc2ccc(OC)cc2[n+]1CCO | active: 10 µM | – |
| O=C(/C=C/Nc1ccc(F)cc1F)c1ccco1 | active: 10 µM | – |
| N#CCCSc1ncnc2c1oc1ccccc12 | inactive | – |
| CC(C)=C[C@H]1[C@@H](C(=O)Oc2ccccc2C(C)C)C1(C)C | – | inactive: -4.5% [at 7.66 µM] |
| O=C(N/N=C/c1cccnc1)c1ccc2c(c1)OCCO2 | inconclusive [inhibitor, single point] | – |
| O=C1c2ccccc2C(=O)C1c1nccc2ccccc12 | active: 8.91 µM | – |
| COc1ccc(-c2[nH]n(-c3ccc([N+](=O)[O-])cc3)c(=O)c2C=NCCN2CCNCC2)cc1 | inconclusive [inhibitor, single point] | – |
| O=[N+]([O-])c1ccc(N/N=C/c2c[nH]c3ccccc23)cc1 | inactive | – |
| Cc1ccnc(NC(=O)c2cccs2)c1 | inconclusive [inhibitor, partial curve] | – |
